The supplement of paper PMC4166925
± gives the standard deviation of the averaged measurements. In all, about 33,000 sequences were measured (“E-score (dimensionless, -0.5 to 0.5)”: median about -0.049, highest 2% from about 0.37 on). The list shows a part of the results.

What follows are sequences tested on T1, PmTbr T-box DNA-binding domain (GST fusion) (assay: PBM E-score of 8-mer (E-score (dimensionless, -0.5 to 0.5)); Tbr is Tbrain of the sea star Patiria miniata (Pm) or the sea urchin Strongylocentrotus purpuratus (Sp); higher = stronger binding preference; most listed sequences are background and not binding sites). Settings: the construct has about 5 more residues each side.
T1 sequence: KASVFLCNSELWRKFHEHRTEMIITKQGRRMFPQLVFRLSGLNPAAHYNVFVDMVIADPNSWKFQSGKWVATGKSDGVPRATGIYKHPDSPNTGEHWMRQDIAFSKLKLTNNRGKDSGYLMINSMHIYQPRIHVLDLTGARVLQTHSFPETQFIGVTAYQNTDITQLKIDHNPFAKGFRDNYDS
In short: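 Each ungapped 8-mer received an enrichment E-score from the Universal PBM Analysis Suite, averaged over duplicate arrays. The proteins were Tbr T-box DNA-binding domains, covering the whole T-box plus about five flanking residues, fused to GST and expressed in BL21 E. coli at 20 °C before glutathione affinity purification. Universal Agilent oligonucleotide arrays were made double-stranded by primer extension and incubated with 200 nM protein in PBS (pH 7.5). The arrays were then scanned and quantified, and every 8-mer was scored from probe intensities.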

Sequence | PBM E-score of 8-mer
ATAAATCC | -0.167 ± 0.052
AACAAAGT | 0.0688 ± 0.018
CCCGATTC | -0.383 ± 0.017
ACACTGAC | 0.209 ± 0.018
CTTCGTCA | 0.276 ± 0.0035
CGATACAC | 0.0423 ± 0.075
CCCGCCAC | 0.203 ± 0.013
AAAGGGCG | -0.0142 ± 0.031
TACGCCAA | -0.111 ± 0.024
CGCCGAGA | -0.0564 ± 0.035
CATCAGCA | -0.0372 ± 0.033
CGTGGCTA | -0.139 ± 0.056
ACCGTTCG | 0.0195 ± 0.018
CATTGGGA | -0.109 ± 0.052
AATCAATA | -0.205 ± 0.0079
GATCCATC | -0.199 ± 0.021
ACGAAGAC | 0.054 ± 0.017
CGCTCTGA | -0.133 ± 0.034
CCCCGGTC | -0.195 ± 0.059
AACCAATA | -0.0877 ± 0.084
AAGTGTTG | 0.437 ± 0.006
CCCCTCCG | 0.137 ± 0.019
AACGAACC | -0.0722 ± 0.016
TACAGTCA | -0.0962 ± 0.012
CCAGTTGC | 0.15 ± 0.024

Sequence | PBM E-score of 8-mer
TGCCCCCA | -0.185 ± 0.011
ACAGCGAA | -0.177 ± 0.02
TGAGAGCA | 0.1022 ± 0.00097
ATCATTAA | -0.232 ± 0.069
AAATCTGT | 0.217 ± 0.089
CAGTGTTC | -0.0572 ± 0.047
ATCTCGTC | 0.28202 ± 8.5e-05
CCACTGCG | 0.0204 ± 0.036
AGCCCAAG | -0.148 ± 0.064
AAAATAGT | 0.0057 ± 0.03
ACAAGCGA | 0.023 ± 0.029
GAGCGGCC | -0.139 ± 0.043
CCTGATAC | -0.223 ± 0.059
CAAGAGGC | -0.004 ± 0.008
GATCTCTA | -0.0709 ± 0.022
CCTTCGAC | 0.0797 ± 0.032
ACTTAACG | 0.232 ± 0.072
CACGCTGC | 0.199 ± 0.03
AGGTCCAC | -0.228 ± 0.0069
AAAGCGGT | -0.0754 ± 0.039
ATGTTCGC | 0.142 ± 0.033
CACCTATG | 0.429 ± 0.011
ACCTGTCA | 0.367 ± 0.013
CATGTTCC | -0.131 ± 0.022
GCGTGCTA | 0.261 ± 0.0046

Sequence | PBM E-score of 8-mer
CTGCTCTA | -0.0917 ± 0.04
ATAGATGG | -0.267 ± 0.042
CGGCACGA | -0.149 ± 0.008
ACACCTAG | 0.462 ± 0.0066
CAATTATA | -0.177 ± 0.069
CGCCTTTA | 0.219 ± 0.0073
CGGTAGTA | -0.144 ± 0.021
GCTTGTGA | 0.187 ± 0.0082
CCAGTCTA | -0.108 ± 0.001
ACGGGTGC | 0.207 ± 0.018
GCTGCCTA | -0.121 ± 0.043
AAATCTAC | 0.00035 ± 0.005
ACCTATCC | -0.0926 ± 0.076
CATGACTA | -0.312 ± 0.035
AATTAATG | -0.162 ± 0.09
AAATTTTC | -0.0378 ± 0.12
CCTGTTCA | 0.122 ± 0.036
CACTTAGC | 0.315 ± 0.011
ACTTGTGG | 0.196 ± 0.014
CCCACAAG | -0.268 ± 0.0069
CAAGGAGC | -0.145 ± 0.1
AAGGATCG | -0.0556 ± 0.0016
CTGCTACA | -0.0242 ± 0.021
CGCGGAGA | 0.0762 ± 0.027
AAATGACA | 0.146 ± 0.0036

Sequence | PBM E-score of 8-mer
ATTCCTGA | -0.189 ± 0.091
TCGACTAA | -0.00758 ± 0.0041
CCGTGTCA | 0.236 ± 0.0063
CAAACTTC | -0.211 ± 0.1
AGGTACTA | -0.00624 ± 0.01
CCCTGGGC | -0.113 ± 0.0098
TCGAGACA | 0.0196 ± 0.017
CCGGGGCC | -0.21 ± 0.014
CCCCCCCC | -0.0147 ± 0.067
AAAACAGC | 0.191 ± 0.027
AGTATCCG | -0.314 ± 0.053
ATATCCGA | 0.00666 ± 0.034
ACGGAGTC | -0.0701 ± 0.05
CCCCGGTA | -0.214 ± 0.043
CACCCCCC | 0.165 ± 0.06
TGTCGCAA | 0.263 ± 0.018
AACCCTAG | 0.158 ± 0.018
CACGGACC | -0.137 ± 0.0039
GTCCGATA | -0.0905 ± 0.033
CCGTAGTC | -0.192 ± 0.042
GAGGACGC | -0.0963 ± 0.027
GAATGAGC | -0.256 ± 0.019
GAGCTGGC | -0.0285 ± 0.0058
ATTGTGGC | 0.0517 ± 0.05
AAACGACC | 0.0442 ± 0.019

Sequence | PBM E-score of 8-mer
AAACCTCA | -0.127 ± 0.083
ACACAGGA | -0.0972 ± 0.037
CGTCCAGC | -0.151 ± 0.028
GCATGAGC | -0.0885 ± 0.018
GCTCCAAA | -0.106 ± 0.013
ATCCTATG | -0.219 ± 0.021
AACGAGCA | -0.0129 ± 0.056
ATTAATAA | -0.175 ± 0.071
ATCTCCGG | 0.0566 ± 0.032
TGAGGGAA | -0.0537 ± 0.066
ATTTAAGG | -0.162 ± 0.086
AATCATGG | -0.0502 ± 0.028
AATAGTCA | 0.0326 ± 0.014
AGCAGGCC | -0.22 ± 0.023
CTACGCTA | -0.0611 ± 0.044
AACGTCTC | -0.0114 ± 0.06
ATCTCGAA | -0.141 ± 0.017
ATTTCTGG | -0.14 ± 0.0059
GGAGGATA | -0.266 ± 0.023
CTGTGAGC | 0.136 ± 0.034
TACACGTA | -0.0249 ± 0.057
CCCTACAC | -0.0629 ± 0.069
CGTCATCA | 0.175 ± 0.013
AATGAGGT | 0.271 ± 0.019
CAACGCAC | 0.047 ± 0.033

Sequence | PBM E-score of 8-mer
ATAATAGC | -0.0817 ± 0.019
CTAGTCTC | 0.0185 ± 0.024
ACGTGAAC | 0.112 ± 0.051
CGTGGAAC | 0.147 ± 0.0015
ATTGTGGA | 0.0181 ± 0.017
CCATTCAG | -0.0387 ± 0.0073
CAGATGCC | -0.314 ± 0.021
GACGGGGA | -0.0268 ± 0.028
CGCGGGCC | 0.00504 ± 0.059
ATGTAGTC | -0.282 ± 0.024
CACTACAG | 0.00051 ± 0.048
GGTAACCA | -0.0769 ± 0.024
CGGAGTAC | -0.162 ± 0.11
GCTTTGAA | -0.183 ± 0.068
TGATCCCA | -0.112 ± 0.056
AAAAGCCA | -0.0672 ± 0.035
CCCGTGAG | 0.0245 ± 0.051
CCCGCAGG | 0.0104 ± 0.039
TAGTACAA | 0.0583 ± 0.059
CACTTCTA | 0.329 ± 0.03
CTGATCAC | 0.109 ± 0.069
AAGAACGA | -0.309 ± 0.022
CGCACTTA | 0.293 ± 0.022
TCGGTACA | -0.148 ± 0.058
ACGTCAGG | -0.133 ± 0.027

Sequence | PBM E-score of 8-mer
CATCGGGG | -0.1182 ± 0.00077
AAAGGCTG | -0.0206 ± 0.023
AGGTCCTA | -0.00696 ± 0.067
GCTTGGTA | -0.112 ± 0.032
CATGGTAC | -0.0102 ± 0.01
GGATGGGA | -0.263 ± 0.062
ACGTCAAG | 0.0181 ± 0.047
AAGGCACA | -0.168 ± 0.042
GGTCATAA | -0.21 ± 0.0042
CATCGAGG | -0.0784 ± 0.06
AGTGCCCC | -0.173 ± 0.11
GTGCTCAA | -0.188 ± 0.027
CCTCCCCC | 0.00104 ± 0.014
TAGGGTAA | -0.0929 ± 0.022
ACGTGAAA | 0.098 ± 0.075
CGCCATTC | 0.212 ± 0.014
ATCATGAT | -0.00826 ± 0.057
ACCCACTA | -0.00321 ± 0.017
GGCGCGAC | 0.377 ± 0.025
AGAAAGTA | -0.0263 ± 0.14
CCGTGCAC | -0.0742 ± 0.048
AAATGCCA | 0.0452 ± 0.0051
ACGTGTAA | 0.31 ± 0.0077
AAGCGCAG | 0 ± 0.06
ATCCTCCC | -0.119 ± 0.0046

Sequence | PBM E-score of 8-mer
AGGCGGGG | -0.0429 ± 0.052
CATTACCA | -0.0668 ± 0.0072
CAAGGACC | -0.212 ± 0.036
CCTTACTA | 0.0144 ± 0.052
ACACTGTA | 0.178 ± 0.0039
TCTCTCCA | -0.117 ± 0.068
TCCCAGAA | -0.0343 ± 0.051
ATTATTTA | -0.0583 ± 0.074
ATATTCGA | -0.0346 ± 0.071
AGCGTACC | -0.233 ± 0.018
CCCGAATC | 0.00343 ± 0.029
GTATGCGA | -0.0624 ± 0.0048
TCGCCTCA | 0.162 ± 0.025
AATCAATC | -0.0715 ± 0.024
CTCCGTTA | 0.00137 ± 0.068
GATGTTAA | -0.0968 ± 0.0093
ACAGATAA | 0.0605 ± 0.021
ACAATGAG | -0.0237 ± 0.009
CCACGCTC | 0.0186 ± 0.12
ATCGACAC | 0.398 ± 0.025
ACGGTGAC | 0.285 ± 0.0079
CTTCACAA | 0.225 ± 0.058
GCGAAGTA | 0.262 ± 0.037
CACGGTGG | 0.104 ± 0.027
ACCGGGGC | -0.0516 ± 0.04

Sequence | PBM E-score of 8-mer
AAGCGGAC | -0.232 ± 0.016
CGAGAAAC | 0.121 ± 0.015
ATTCGCTG | -0.172 ± 0.036
AACCGCTT | -0.158 ± 0.071
ATCGGGAG | -0.0243 ± 0.00094
GACCGCGC | 0.0617 ± 0.021
TACCATGA | -0.158 ± 0.034
AGGGCCCG | -0.135 ± 0.058
ACCAATCA | -0.0557 ± 0.044
GTCTTTCA | -0.0206 ± 0.036
ACGTTTGC | 0.0202 ± 0.072
ACAGACAT | 0.0773 ± 0.016
CAATTAGC | 0.022 ± 0.03
CCGTCATA | 0.115 ± 0.028
ACACTTTA | 0.338 ± 0.029
CTGATAAG | -0.0195 ± 0.063
ACTAACTC | -0.0389 ± 0.019
ACGTCGAT | -0.00998 ± 0.039
CCCCCACA | -0.178 ± 0.043
